# Laboratory results reported in the RNAGym collection of RNA variant scans (doi:10.7554/elife.90254).
# The source gives no read counts; variants with many changes may rest on few reads.
# B1: LINE1-mini (parent)
# chain: GGCAGAGCUCAACACAGCGUGGCAAAGUGGCUGUGGCUAGACUGCC
# Variants of: B1
# Assay: self-cleavage, relative activity (ratio to wild type); higher = more cleavage; in vitro, sequencing; the parent is a self-cleaving ribozyme
row,Variant,self-cleavage
1,GGUAAACCGCAACACAGCGUGGCAAAGUGUCUGUGGCUAGACUGCC [C3U G5A G7C U9G G30U],0.05
2,GGUAAAGCUCAACACAGCGUGGCAAACUGGCUGUGGCUAGACUGAC [C3U G5A G27C C45A],0.1
3,GGUACAGCUCAACACACUGUGGCAAAGUGUCUGUGGCUAGACUGCC [C3U G5C G17C C18U G30U],0.04
4,GGUAUAGAUCAACACAGCGUGGCAAAGUGGCUGUUGCUAGACUGCC [C3U G5U C8A G35U],0.11
5,GGUAGAGCUCAACACAGCGUGGAAAAGUGGCUGUGGUUAGACUGCC [C3U C23A C37U],0.06
6,GGUAGAGCUCAACACAGUGUGGCAAAGUGGCUUUGGCUAGACUGCC [C3U C18U G33U],0.09
7,GGUAGAGCUCAACACAGCGUGGAAAAGUGGCUGUGGCUAGACUAUC [C3U C23A G44A C45U],1.25
8,GGUACAGCUGAACACAGCGUGGCAAAGUGGCUGUGGCCAGACUGCC [C3U G5C C10G U38C],0.05
9,GGUAGAGCUCAACACAGCGUGGAAAAGUGGCUGUGGCUAGAGUGCC [C3U C23A C42G],0.13
10,GGUAGAACUCAACACAGCGUGGCAAAGUGGCUGUGGCUAGAGUGCC [C3U G7A C42G],0.12
11,GGUAGAGCUCAACACAGGGAGGCAAAGUGGCUGUGGCUAGACUGCC [C3U C18G U20A],0.07
12,GGUAGAGCUCAACACAGUGUGGCAAAGUGGCUGUGGCUAGACUGUC [C3U C18U C45U],0.07
13,GGUAGAGCUCAACACAGUGUCGCAAAGUGGCUGUGGCUAGAUUUCC [C3U C18U G21C C42U G44U],0.14
14,GGUAGAGCUCAACACAGCGUGGAAAAGUGGCUGUGGCUCGACUGCU [C3U C23A A39C C46U],0.17
15,GGUAUAGCUCAACACAGCGUGGCAAAGUGGCUGUGGCCAGACUGCC [C3U G5U U38C],0.02
16,GGUAGAGCUCAACACAGUGAGGCAAAGUGGCUAUGGCUAGACUGCC [C3U C18U U20A G33A],0.07
17,GGUAGAGCUCAACACAGUGUGGCAAAGUGGCUGUGGCUAGACAGCC [C3U C18U U43A],0.03
18,GGUACAGCUCAACACAGCGUGGCAGAGUGGCUAUGGCUAGACUGCC [C3U G5C A25G G33A],0.15
19,GGUAGAGCUCAACACAGGGUGGCAAACUGGCUGUGGCUAGACUGCU [C3U C18G G27C C46U],0.04

row,Variant,self-cleavage
1,GGUAAAGCUCAACCCAGCGUGGCAAAGUGGCUGUGGCUAGACUGCC [C3U G5A A14C],0.2
2,GGUAGAGCUCAACACAGAGUAGCAAAGUGGCUGUGGCUAGACUGCC [C3U C18A G21A],0.11
3,GGUACAGCUCAACACAGAGUGGCAAAGUGGCUGUGGCUAGACUGCC [C3U G5C C18A],0.13
4,GGUACAGCUCAACAGAGCGUGUUAAAGUGGCUGUGGCUAGACUGCC [C3U G5C C15G G22U C23U],0.04
5,GGUAGAGCUCAACACAGCGUGGAAGAGUGGCUGUGGCUAGACUGCC [C3U C23A A25G],0.2
6,GGUAGAGCUCAACACAGCGUGGAUAAGUGGCAGUGGCUAGACUGCC [C3U C23A A24U U32A],0.08
7,GGUAACGCUCAACACAGCAUCGUAAAGUGGCUGAUGCAAGACUGCC [C3U G5A A6C G19A G21C C23U U34A G35U U38A],0.04
8,GGUAGAGCUCAACACAGUGUGGCAAAGCCGCUGUGGCUAGACUGCC [C3U C18U U28C G29C],0.05
9,GGUAGAGCUCAACACAGGGUGGCAAAGUGGAUGUGGCUAGACUGCC [C3U C18G C31A],0.01
10,GGUAGAGCUCAACACAGGGUGGCAAAGUGGCUGUGGCUAGACUGAC [C3U C18G C45A],0.06
11,GGUAUAGCUUAACACAUCGUGGCGAAGUGGCUGUGGCUAAACUGCC [C3U G5U C10U G17U A24G G40A],0.01
12,GGUAGAGCUCAACACAGCGUGGCAAAGUGGCUGUGGAUAGACAGCC [C3U C37A U43A],0.03
13,GGUAGAGCUCAACACAGUGUGGCAAAGUCGCUGUGGCGAGACUGCC [C3U C18U G29C U38G],0
14,GGUACAACUCAACACAGCGUGGCAAAGUGGCUGUGGCUAGACUGCC [C3U G5C G7A],1.24
15,GGUAGAGCUCAACACAGGGUGGCAAAGUGGCUGUCGCUAGACUGCC [C3U C18G G35C],0.24
16,GGUAUAGCACAAAACAGCGUGGGAAAGUUGCUGUGGCUAAUCUGCC [C3U G5U U9A C13A C23G G29U G40A A41U],0.03
17,GGUAGAACUCAACACAGCGUGGCAAAGUGGCUGUGGCUAGACUUCC [C3U G7A G44U],0.08
18,GGUAAAGCUCAACACACCGUGUCAAAGUGGCUGUUGCUAGACUGCC [C3U G5A G17C G22U G35U],0.11
19,GGUAGAGCUCAACACAGCGUGGCAAAGUGGCUGUGGGAAGACUGCC [C3U C37G U38A],0.12

row,Variant,self-cleavage
1,GGUAAAGCUCAACACAGCGUGGCGAAGUGCCUGUGGCUAGACUGCC [C3U G5A A24G G30C],0.06
2,GGUAUAGCUCAACACAGCGUGGCGAAGUGGCUGUGGCUAGACUGCC [C3U G5U A24G],0.57
3,GGUAUAGCUCAACACAGCGUGGCUAAGUGGCUGUGGCUAGACUGCC [C3U G5U A24U],0.08
4,GGUAACGCUCGACACAGCGUGGCAAAGUGCCUGCGGCUAGACUGCC [C3U G5A A6C A11G G30C U34C],0.04
5,GGUAGAGCUCAACACAGUGUGGCAAAGUGCCUAUGGCUAGACUGCC [C3U C18U G30C G33A],0.13
6,GGUAGAACUCAUCCCCGCGCGGCAAAGUGGCUGUGGCUAGACUGCC [C3U G7A A12U A14C A16C U20C],0.23
7,GGUAUAGCUGACCACAGCGUGGCAAAGUGGCUGUGGCUAGACUGCU [C3U G5U C10G A12C C46U],0.06
8,GGUAGAGCUCAACACAGUGUGGCAGAGUGGUUGUGGCUAGACUGCC [C3U C18U A25G C31U],0.02
9,GGUAAAGCAAAGCACAGCGUGGCAAAGUGGCUAUGGCUAGACUGAC [C3U G5A U9A C10A A12G G33A C45A],0.03
10,GGUAGAGCUCAACACAGCGUGGCAAAGUGGUUGUGGCCAGACUGCC [C3U C31U U38C],0.08
11,GGUACAGCUCAACCCAGCGUGGCAAAGGGGCUGUGGCUAGACUGCC [C3U G5C A14C U28G],0
12,GGUAGAGCUCAACACAGCGUGGCAAAGUGGCUGUGGUCAGACUGCC [C3U C37U U38C],0.04
13,GGUAGAGCUCAACACAGCGUGGCAAAGUGGCUGUGGUGAGACUGCC [C3U C37U U38G],0.03
14,GGUAGAACUCAACUCAGCGUGGCAAAGUGGCUGUGGCUAGACUGCC [C3U G7A A14U],0.51
15,GGUAGAGCUCAACACAGCGUGGCAAAGUGGCUGUGGUUAGACUUCC [C3U C37U G44U],0.04
16,GGUAGAGCUCAACACAGAGUGGCAAAGUGACUGUGGCUGGACUGCC [C3U C18A G30A A39G],0.08
17,GGUAGAGCUCAACACAGCGUGGGAAAGUGGCUGUGGCUAGACUCCC [C3U C23G G44C],0.35
18,GGUAGAGCUCAACACAGUGUAGCAAAGUGGCUGUGGUUAGACUGCC [C3U C18U G21A C37U],0.16
